# In PubChem BioAssay AID1508642 (National Center for Advancing Translational Sciences (NCATS), 2021):
# In all, about 43,000 compounds went through this assay and about 200 (0.47%) were called active. Inconclusive results (about 12%) are left out. The call rests on the fitted dose curve; in most records, active means well fitted cell-killing curve with a large enough effect; inconclusive means small, poorly fitted or top-dose-only effect, or effect the other way; inactive means flat fitted curve, though single readings scatter. This is one part of the list.
# Assay: Cell viability qHTS assay in S16 Pmp22-F2sN cells; further: nearly all actives have a fitted effect of over 65% in size
# Conditions: S16 Pmp22-F2sN Schwann cells (luciferase reporters placed in the Pmp22 gene) viability, CellTiter-Glo, 24 h; series mostly up to 57.5 µM; activity change, negative = cytotoxicity: at the top concentration
# How it was run: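 Rat S16 Schwann reporter line, 24 h treatment with library compounds delivered at 23 nL per well. Cell viability by CellTiter-Glo luminescence.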
# On the % scale 0 is the no-effect control and ±100 the full control effect.
row,SMILES,"activity change, negative = cytotoxicity"
1,Cc1ccc(-c2nnc(Nc3cccc(Cl)c3)c3ccccc23)cc1S(=O)(=O)N1CCOCC1,inactive: 14.1%
2,COc1ccccc1NC(=O)Cn1c(=O)n(Cc2ccccc2)c(=O)c2sc3ccccc3c21,inactive: -1.46%
3,COc1ccc(C)cc1NC(=O)N(Cc1ccc(C)o1)C1CCN(C(C)=O)CC1,inactive: 17.1%
4,O=C(Cn1cnc2c(oc3ccccc32)c1=O)Nc1ccccc1C(F)(F)F,inactive: 11.1%
5,CC(C)COc1cccc(C(=O)Nc2ccc(-c3nc4ncccc4o3)cc2)c1,inactive: -13.6%
6,CCCc1nc2sc3c(N4CCC(C)CC4)ncnc3c2c2c1CCCC2,inactive: 15.5%
7,CCC(C(=O)Nc1cccc(Cl)c1C)n1nc(-c2ccc(C)cc2)ccc1=O (stereo not drawn),inactive: 2.71%
8,O=C(NCc1cccc(Cl)c1)c1cc2ccc3cccnc3c2[nH]1,inactive: 8.78%
9,CC(C)COc1ccc(C(=O)Nc2ccc(S(=O)(=O)Nc3ncccn3)cc2)cc1,inactive: 1.3%
10,CCC(=O)Nc1cc(C)c(O)c(-c2nc3ncccc3o2)c1,inactive: 4.18%
11,CC1CCN(C(=O)Cn2cc(SCC(=O)NCc3ccccc3Cl)c3ccccc32)CC1,inactive: -27.5%
12,Cc1cc(C)c(NC(=O)CSc2nc3ccccc3nc2N2CCCCC2)c(C)c1,inactive: -1.33%
13,O=C(Nc1cccc(-c2nc3cc(Cl)ccc3o2)c1)c1cc([N+](=O)[O-])ccc1N1CCOCC1,inactive: -0.226%
14,CCn1c(=O)c2cc(C(=O)Nc3cc(F)ccc3F)sc2c2ccccc21,inactive: -9.74%
15,COc1ccc(CN2C(=O)c3oc4ccccc4c(=O)c3C2c2ccc(O)cc2)cc1 (stereo not drawn),inactive: -0.84%
16,COc1ccc(NC(=O)c2csc3c2CCCCC3)cc1,inactive: -5.22%
17,Cc1ccc(Cc2nc3ccccc3nc2SCC(=O)NCCC(C)C)cc1,inactive: 15.5%
18,Cc1ccc(Cc2c(C)nc3nc(SCC(=O)NC(C)c4ccccc4)nn3c2C)cc1 (stereo not drawn),inactive: -16.7%
19,COc1cccc(-c2nc(SCc3cc(=O)c4ccc(C)c(C)c4[nH]3)n[nH]2)c1,inactive: -19.3%
20,CCOc1ccc(NC(=O)Cn2cc(C(=O)c3ccc(CC)cc3)c(=O)c3cc(C)ccc32)cc1,inactive: 0.259%
21,Cn1c(=O)c2c(-c3ccccc3)n3c4ccccc4nc(-c4ccccc4)c3c2n(C)c1=O,inactive: -11.6%
22,COC(=O)c1cc2occc2n1Cc1nc(-c2ccccc2F)oc1C,inactive: -3%
23,COc1ccc(C(=O)NCC(c2cccnc2)N2CCc3ccccc3C2)cc1OC (stereo not drawn),inactive: -7.6%
24,COc1ccc(S(=O)(=O)c2nnn(-c3cc(Cl)c(OC)cc3OC)c2C)cc1,inactive: 8.13%

row,SMILES,"activity change, negative = cytotoxicity"
1,O=C(CSc1nc2c([nH]c3ccccc32)c(=O)n1-c1ccc(F)cc1)NCc1ccccc1,inactive: 19.4%
2,CCOCCCn1c(SCC(=O)Nc2ccc(C(C)C)cc2)nc2c(sc3ccccc32)c1=O,inactive: 7.97%
3,COc1ccc(N2CCN(C(=O)CCNS(=O)(=O)c3ccc4c(c3)CCN4C(=O)C3CC3)CC2)cc1,inactive: -12.5%
4,COc1ccc(CNC(=O)c2ccc(Cn3c(=O)c4cccn4c4cccnc43)cc2)cc1OC,inactive: 1.06%
5,CCOCCCNC(=O)NC(CCC(C)C)c1c(-n2cccc2)sc2c1CCN(C)C2 (stereo not drawn),inactive: 8.77%
6,O=C(NCc1cccc(F)c1)C1CCN(C(=O)c2sccc2-n2cccc2)CC1,inactive: 4.16%
7,O=C(Nc1cc(NC(=O)c2ccccc2Cl)ccc1Cl)c1ccccc1,inactive: -18.9%
8,CC(C)(C)C(=O)CSc1nc2ccsc2c(=O)n1Cc1ccccc1F,inactive: -15.5%
9,Cc1ccc(C)c(-c2nc(Cn3c(=O)cc(-c4ccccc4)c4c(C)nn(C)c43)c(C)o2)c1,inactive: -2.28%
10,CN1CCN(CCCNC(=O)c2cnn(-c3ccccc3)c2-n2cccc2)CC1,inactive: 7.45%
11,O=c1c2sc3ccccc3c2n(Cc2cccc(C(F)(F)F)c2)c(=O)n1Cc1ccco1,inactive: -2.15%
12,NS(=O)(=O)c1ccc(CCNC(=O)c2nc(SCc3ccccc3F)ncc2Cl)cc1,inactive: -0.22%
13,COc1cccc(C2C(C(=O)Nc3ccccc3OC)=C(C)Nc3nc4ccccc4n32)c1 (stereo not drawn),inactive: 4.26%
14,CCc1ccccc1Nc1ncnc2c1nc1n2CCCC1,inactive: 4.78%
15,Cc1cc(=O)c2cc(C(=O)Nc3ccccc3)ccc2[nH]1,inactive: 6.22%
16,Cc1ccc2cccc(NC(=O)c3ccc(-c4ccc(Br)cc4)o3)c2n1,inactive: 5.19%
17,CCc1ccc(-n2c(-c3ccccc3)c(C)n3c4c(=O)n(C)c(=O)n(C)c4nc23)cc1,inactive: 4.6%
18,COc1cccc(N2C(=O)N(CC(=O)NCc3cccc(OC)c3OC)c3ccccc3S2(=O)=O)c1,inactive: 25.7%
19,Cc1ccc(-c2csc(/C(C#N)=C/c3ccccc3Cl)n2)cc1,inactive: 5.6%
20,Cc1cn2c(=O)cc(COc3ccccc3NC(=O)c3ccccc3C)nc2s1,inactive: 14.4%
21,COc1ccccc1N1CCN(C(=O)CCS(=O)(=O)c2cc(Br)cc3c2N(C(=O)C2CC2)CC3)CC1,inactive: -2.78%
22,CCOC(=O)c1c(C)oc2nc(C)nc(N3CCN(c4ccccc4)CC3)c12,inactive: 7.98%
23,O=C(Nc1ccc(F)cc1)c1cccn1-c1nnc(N2CCCCC2)s1,inactive: 2.15%
24,COc1ccc2oc(=O)c(C(=O)NCCc3c(C)[nH]c4ccc(Br)cc34)cc2c1,inactive: 10%
